Experimental data: patent US20160038588A1, “Myostatin Antagonism in Human Subjects” (AMGEN INC., priority 2013, published 2016)

T1: myostatin (Homo sapiens, UniProt O14793)
T1 construct: To produce mature myostatin, the pooled promyostatin was enzymatically cleaved between the propeptide and mature myostatin C terminal; made in house
T1 sequence (O14793 267-375): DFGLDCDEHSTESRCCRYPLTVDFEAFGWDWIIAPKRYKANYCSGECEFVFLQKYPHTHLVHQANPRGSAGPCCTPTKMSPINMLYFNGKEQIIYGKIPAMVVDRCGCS


target: T1, myostatin; assay: C2C12 pMARE-luc cell based myostatin activity assay; settings: affinity matured peptibodies; a range of values is given
Source text: The antagonists including the binding agents described herein can be tested for their ability to bind myostatin and inhibit or block myostatin activity. Any number of assays or animal tests may be used to determine the ability of the agent to inhibit or block myostatin activity. Several assays used for characterizing the peptides and peptibodies of the present invention are described in the Examples below. One assay is the C2C12 pMARE-luc assay which makes use of a myostatin-responsive cell line (C2C12 myoblasts) transfected with a luciferase reporter vector containing myostatin/activin response elements (MARE). Exemplary peptibodies are assayed by pre-incubating a series of peptibody dilutions with myostatin, and then exposing the cells to the incubation mixture. The resulting luciferase activity is determined, and a titration curve is generated from the series of peptibody dilutions. The IC50 (the concentration of peptibody to achieve 50% inhibition of myostatin activity as measured by luciferase activity) was then determined. A second assay described below is a BIAcore® assay to determine the kinetic parameters ka (association rate constant), kd (dissociation rate constant), and KD (dissociation equilibrium constant) for the myostatin binding agents and other antagonists such as antibodies capable of binding myostatin and its receptor. Lower dissociation equilibrium constants (KD, expressed in nM) indicated a greater affinity of the peptibody for myostatin. […] These assays are described in Example 3.
C2C12 Cell Based Myostatin Activity Assay
A myostatin-responsive reporter cell line was generated by transfection of C2C12 myoblast cells (ATCC No: CRL-1772) with a pMARE-luc construct. The pMARE-luc construct was made by cloning twelve repeats of the CAGA sequence, representing the myostatin/activin response elements (Dennler et al. EMBO 17: 3091-3100 (1998)) into a pLuc-MCS reporter vector (Stratagene cat #219087) upstream of the TATA box. The myoblast C2C12 cells naturally express myostatin/activin receptors on its cell surface. When myostatin binds the cell receptors, the Smad pathway is activated, and phosphorylated Smad binds to the response element (Macias-Silva et al. Cell 87:1215 (1996)), resulting in the expression of the luciferase gene. Luciferase activity is then measured using a commercial luciferase reporter assay kit (cat # E4550, Promega, Madison, Wis.) according to manufacturer's protocol. A stable line of C2C12 cells that had been transfected with pMARE-luc (C2C12/pMARE clone #44) was used to measure myostatin activity according to the following procedure.
Equal numbers of the reporter cells (C2C12/pMARE clone #44) were plated into 96 well cultures. A first round screening using two dilutions of peptibodies was performed with the myostatin concentration fixed at 4 nM. Recombinant mature myostatin was preincubated for 2 hours at room temperature with peptibodies at 40 nM and 400 nM respectively. The reporter cell culture was treated with the myostatin with or without peptibodies for six hours. Myostatin activity was measured by determining the luciferase activity in the treated cultures. This assay was used to initially identify peptibody hits that inhibited the myostatin signaling activity in the reporter assay. Subsequently, a nine point titration curve was generated with the myostatin concentration fixed at 4 nM. The myostatin was preincubated with each of the following nine concentrations of peptibodies: […], 0.4 nM, 4 nM, 20 nM, 40 nM, 200 nM, 400 nM, 2 uM and 4 uM for two hours before adding the mixture to the reporter cell culture. The IC50 values were for a number of exemplary peptibodies are provided in Tables III and for affinity matured peptibodies, in Table VIII.

Row | Molecule | IC50 [nM]
1 | mTN8Con6-3 (protein) [here human IgG1 Fc without letters]GGGGGAQWTGWYQCYGGHLWCYDLRRKLE | 86.8
2 | mTN8Con6-5 (protein) [here human IgG1 Fc without letters]GGGGGAQESRWYPCYEGHLWCFDLTETLE | 2380
3 | mTN8-19-7(-LE) (protein) [here human IgG1 Fc without letters]GGGGGAQLADHGQCIRWPWMCPPEGWE | 1.75 to 2.68
4 | mTN8-19-21(-LE) (protein) [here human IgG1 Fc without letters]GGGGGAQSEYQGLCTRWPWMCPPQGWK | 2.49
5 | mTN8-19-33(-LE) (protein) [here human IgG1 Fc without letters]GGGGGAQPESQGHCTRWPWMCPPQGWG | 1.81
6 | 2xmTN8-19-21 (protein) [here human IgG1 Fc without letters]GGGGGAQSEYQGLCTRWPWMCPPQGWKLEGSGSATGGSGSTASSGSGSATGSEYQGLCTRWPWMCPPQGWKLE | 0.828 to 1.43
7 | 2xmTN8-19-22 (protein) [here human IgG1 Fc without letters]GGGGGAQTFSQGHCTRWPWMCPPQGWGLEGSGSATGGSGSTASSGSGSATGTFSQGHCTRWPWMCPPQGWGLE | 0.994 to 1.22
8 | 2xmTN8-19-7(-LE) (protein) [here human IgG1 Fc without letters]GGGGGAQLADHGQCIRWPWMCPPEGWEGSGSATGGSGGGASSGSGSATGLADHGQCIRWPWMCPPEGWE | 1.08 to 1.22
9 | 2xmTN8-19-21(-LE) (protein) [here human IgG1 Fc without letters]GGGGGAQSEYQGLCTRWPWMCPPQGWKGSGSATGGSGGGASSGSGSATGSEYQGLCTRWPWMCPPQGWK | 0.883 to 1.25
10 | 2xmTN8-19-33(-LE) (protein) [here human IgG1 Fc without letters]GGGGGAQPESQGHCTRWPWMCPPQGWGGSGSATGGSGGGASSGSGSATGPESQGHCTRWPWMCPPQGWG | 1.03 to 1.12
11 | mL2-7 (protein) MGAQRMEMLESLFELLKEIVPMSKAGLEGGGGG[here human IgG1 Fc without letters] | 90.2
12 | mL2-9 (protein) MGAQQMELLDSLFELLKEIVPKSQPALEGGGGG[here human IgG1 Fc without letters] | 106
13 | mL15-7 (protein) [here human IgG1 Fc without letters]GGGGGAQQVDSLQQVLLWLEHKLALGPQVLE | 32.8
14 | mL15-9 (protein) [here human IgG1 Fc without letters]GGGGGAQQIEMLESLLDLLRDMVPMSNAFLE | 354
15 | mL20-2 (protein) [here human IgG1 Fc without letters]GGGGGAQTQRDMSMLDGLLEVLDQLRQQRLE | 123
16 | mL20-3 (protein) [here human IgG1 Fc without letters]GGGGGAQTSRDMSLLWELLEELDRLGHQRLE | 158
17 | mL20-4 (protein) [here human IgG1 Fc without letters]GGGGGAQMQHDMSMLYGLVELLESLGHQILE | 160
